The labels stand for the following.
B1: PIF5, wild type, in pGAD (protein, UniProt Q84LH8 1-444)
chain: MEQVFADWNFEDNFHMSTNKRSIRPEDELVELLWRDGQVVLQSQARREPSVQVQTHKQETLRKPNNIFLDNQETVQKPNYAALDDQETVSWIQYPPDDVIDPFESEFSSHFFSSIDHLGGPEKPRTIEETVKHEAQAMAPPKFRSSVITVGPSHCGSNQSTNIHQATTLPVSMSDRSKNVEERLDTSSGGSSGCSYGRNNKETVSGTSVTIDRKRKHVMDADQESVSQSDIGLTSTDDQTMGNKSSQRSGSTRRSRAAEVHNLSERRRRDRINERMKALQELIPHCSRTDKASILDEAIDYLKSLQMQLQVMWMGSGMAAAAAAAASPMMFPGVQSSPYINQMAMQSQMQLSQFPVMNRSAPQNHPGLVCQNPVQLQLQAQNQILSEQLARYMGGIPQMPPAGNQMQTVQQQPADMLGFGSPAGPQSQLSAPATTDSLHMGKIG
B2: PIF5 with the APB-domain residue E31 exchanged to alanine, in pGAD (protein, UniProt Q84LH8 1-444)
chain: B1 chain with E31A
B3: PIF5 W91A in pGAD (protein, UniProt Q84LH8 1-444)
chain: B1 chain with W91A
B4: PIF5 with the APB-domain residue E31 exchanged to valine, in pGAD (protein, UniProt Q84LH8 1-444)
chain: B1 chain with E31V
B5: PIF1, wild type, in pGAD (protein, UniProt Q8GZM7 1-478)
chain: MHHFVPDFDTDDDYVNNHNSSLNHLPRKSITTMGEDDDLMELLWQNGQVVVQNQRLHTKKPSSSPPKLLPSMDPQQQPSSDQNLFIQEDEMTSWLHYPLRDDDFCSDLLFSAAPTATATATVSQVTAARPPVSSTNESRPPVRNFMNFSRLRGDFNNGRGGESGPLLSKAVVRESTQVSPSATPSAAASESGLTRRTDGTDSSAVAGGGAYNRKGKAVAMTAPAIEITGTSSSVVSKSEIEPEKTNVDDRKRKEREATTTDETESRSEETKQARVSTTSTKRSRAAEVHNLSERKRRDRINERMKALQELIPRCNKSDKASMLDEAIEYMKSLQLQIQMMSMGCGMMPMMYPGMQQYMPHMAMGMGMNQPIPPPSFMPFPNMLAAQRPLPTQTHMAGSGPQYPVHASDPSRVFVPNQQYDPTSGQPQYPAGYTDPYQQFRGLHPTQPPQFQNQATSYPSSSRVSSSKESEDHGNHTTG
B6: PIF1 with the APB-domain residue E41 exchanged to alanine, in pGAD (protein, UniProt Q8GZM7 1-478)
chain: B5 chain with E41A
B7: PIF1 E41V in pGAD (protein, UniProt Q8GZM7 1-478)
chain: B5 chain with E41V

The chains behind the UniProt entries cited, without tags or fusion partners. Residues count along the entry.
UniProt P14713, residues 1-621: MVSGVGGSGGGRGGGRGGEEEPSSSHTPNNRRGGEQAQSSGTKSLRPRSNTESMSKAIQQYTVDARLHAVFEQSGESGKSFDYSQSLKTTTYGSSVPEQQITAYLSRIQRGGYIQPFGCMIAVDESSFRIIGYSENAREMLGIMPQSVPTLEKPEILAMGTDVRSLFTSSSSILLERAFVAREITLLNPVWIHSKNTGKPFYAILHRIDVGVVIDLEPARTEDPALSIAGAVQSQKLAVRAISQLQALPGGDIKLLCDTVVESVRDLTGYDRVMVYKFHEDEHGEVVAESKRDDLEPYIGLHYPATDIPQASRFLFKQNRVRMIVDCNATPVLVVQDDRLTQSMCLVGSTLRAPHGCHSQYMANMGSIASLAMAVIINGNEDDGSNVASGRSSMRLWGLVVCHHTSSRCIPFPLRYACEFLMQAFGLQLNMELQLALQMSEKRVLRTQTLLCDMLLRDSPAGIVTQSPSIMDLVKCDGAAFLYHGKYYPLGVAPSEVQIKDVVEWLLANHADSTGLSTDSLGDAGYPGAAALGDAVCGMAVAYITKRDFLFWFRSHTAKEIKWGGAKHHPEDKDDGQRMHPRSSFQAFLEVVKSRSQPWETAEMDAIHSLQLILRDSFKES

Numbering of substitutions follows the chain as printed. Names may count otherwise. These are yes or no findings as the source states them, for the method shown. Some entries that bind do so weakly or less than the wild type.

In this test the target is phyB N-terminus (N-terminal 621 aa of phyB) fused to the GAL4 DNA-binding domain (Arabidopsis) (UniProt P14713). The test can be described thus: two-hybrid; plate growth assay, strain AH109 pre-transformed with pBAC-N (phyB-N as bait), PIF variants in pGAD; selection plates -W/L/H, 1 mM 3AT, 40 ug/ml X-alpha-Gal; R light 0.9 umoles m^-2 s^-1.
Regarding B1, the binding entry is “binds”.

For B2, the binding result is reported as “no binding”.

On to B3, for which the binding entry is “binds”.

For B4, the binding entry is on record as “no binding”.

Regarding B5, the binding result is recorded as “binds”.

For the molecule B6, the binding result was “no binding”.

B7: the binding result is reported as “no binding”.

For the origin of these results see PMC4911399.
